According to article PMC7005036:
These are yes or no findings as the source states them, for the method shown. For some of these results: Binding seen in cells or lysates may run through a third protein. Sequences can lack the tags named with a protein. Some binding calls cover weakened binding; strength is not graded here. Each block holds one binder with its values, some of them ahead of it.

Assays:
[1] = molecular target: T1, CLuc-MID1 (Arabidopsis thaliana) (UniProt Q9LNC0); test: split reporter; firefly luciferase complementation imaging; NLuc and CLuc fusions co-infiltrated into N. benthamiana leaves, 22 °C for 72 h, CCD imaging
T1 sequence: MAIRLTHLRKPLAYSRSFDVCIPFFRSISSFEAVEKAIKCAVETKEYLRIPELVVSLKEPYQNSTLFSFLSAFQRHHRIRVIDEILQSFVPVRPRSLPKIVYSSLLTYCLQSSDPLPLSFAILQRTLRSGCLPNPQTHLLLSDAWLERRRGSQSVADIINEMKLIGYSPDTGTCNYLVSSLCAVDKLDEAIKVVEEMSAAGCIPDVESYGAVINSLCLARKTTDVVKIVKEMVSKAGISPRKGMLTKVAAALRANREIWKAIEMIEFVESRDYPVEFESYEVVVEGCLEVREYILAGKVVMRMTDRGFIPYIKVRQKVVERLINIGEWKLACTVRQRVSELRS

[2] = molecular target: T2, MID1(136–170aa), first PPR motif of MID1, yeast two-hybrid fusion (Arabidopsis thaliana) (UniProt Q9LNC0); test: two-hybrid; bait vector pGBKT7 (BD) and prey vector pGADT7 (AD), proteins without the N-terminal mitochondrial targeting signals; growth on SD/-Ade-His-Trp-Leu; 10 mM 3-AT added for some pairs against auto-activation
T2 sequence: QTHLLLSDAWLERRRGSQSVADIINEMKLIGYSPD

[3] = molecular target: T3, MID1(77–205aa), yeast two-hybrid fusion (Arabidopsis thaliana) (UniProt Q9LNC0); test: as above
T3 sequence: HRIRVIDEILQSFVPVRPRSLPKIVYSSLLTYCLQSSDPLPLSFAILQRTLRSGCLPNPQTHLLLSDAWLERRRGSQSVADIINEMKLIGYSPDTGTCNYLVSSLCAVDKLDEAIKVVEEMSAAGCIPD

[4] = molecular target: T4, MID1(77–276aa), yeast two-hybrid fusion (Arabidopsis thaliana) (UniProt Q9LNC0); test: as above
T4 sequence: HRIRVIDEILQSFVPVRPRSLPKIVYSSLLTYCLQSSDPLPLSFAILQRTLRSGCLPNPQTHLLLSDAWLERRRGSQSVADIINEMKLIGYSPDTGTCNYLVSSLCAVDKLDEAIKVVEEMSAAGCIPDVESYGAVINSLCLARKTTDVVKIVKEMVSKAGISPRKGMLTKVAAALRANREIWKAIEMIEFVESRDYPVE

[5] = molecular target: T5, MID1(77–170aa), yeast two-hybrid fusion (Arabidopsis thaliana) (UniProt Q9LNC0); test: as above
T5 sequence: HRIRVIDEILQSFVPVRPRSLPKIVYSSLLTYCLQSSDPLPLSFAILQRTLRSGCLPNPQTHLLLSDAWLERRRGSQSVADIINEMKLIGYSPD

[6] = molecular target: MID1(77–343aa), MITOCHONDRION-MEDIATED GROWTH DEFECT 1 without the mitochondrial targeting signal, yeast two-hybrid fusion (Arabidopsis thaliana) (UniProt Q9LNC0); test: as above
[7] = molecular target: T6, MID1(77–240aa), yeast two-hybrid fusion (Arabidopsis thaliana) (UniProt Q9LNC0); test: as above
T6 sequence: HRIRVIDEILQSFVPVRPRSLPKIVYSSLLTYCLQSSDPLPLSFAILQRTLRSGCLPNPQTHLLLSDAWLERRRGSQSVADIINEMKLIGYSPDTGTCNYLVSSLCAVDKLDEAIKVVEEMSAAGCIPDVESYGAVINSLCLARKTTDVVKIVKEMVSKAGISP

[8] = molecular target: T7, MID1(77–311aa), yeast two-hybrid fusion (Arabidopsis thaliana) (UniProt Q9LNC0); test: as above
T7 sequence: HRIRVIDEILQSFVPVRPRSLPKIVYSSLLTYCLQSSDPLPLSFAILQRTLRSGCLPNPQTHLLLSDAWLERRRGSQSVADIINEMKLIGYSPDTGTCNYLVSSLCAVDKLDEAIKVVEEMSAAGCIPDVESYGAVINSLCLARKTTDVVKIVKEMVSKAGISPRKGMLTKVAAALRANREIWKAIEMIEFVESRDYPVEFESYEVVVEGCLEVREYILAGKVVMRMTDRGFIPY

[9] = molecular target: T8, MID1(77–135)BD, N-terminus of MID1 only (Arabidopsis thaliana) (UniProt Q9LNC0); test: as above
T8 sequence: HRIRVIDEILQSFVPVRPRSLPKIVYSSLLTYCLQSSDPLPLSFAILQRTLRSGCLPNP

[10] = molecular target: T9, WTF9-GFP, full-length WHAT’S THIS FACTOR 9 with C-terminal GFP (Arabidopsis thaliana) (UniProt Q9ZUZ6); test: co-IP; GFP-tagged bait and 3×Flag-tagged prey transiently co-expressed in Arabidopsis protoplasts; GFP Trap beads overnight at 4 °C; 50 mM Tris-Cl pH 7.5, 150 mM NaCl, 1 mM EDTA, 0.5% NP40 (wash 1% NP40), 1 mM DTT; blots with anti-GFP and anti-Flag
T9 sequence: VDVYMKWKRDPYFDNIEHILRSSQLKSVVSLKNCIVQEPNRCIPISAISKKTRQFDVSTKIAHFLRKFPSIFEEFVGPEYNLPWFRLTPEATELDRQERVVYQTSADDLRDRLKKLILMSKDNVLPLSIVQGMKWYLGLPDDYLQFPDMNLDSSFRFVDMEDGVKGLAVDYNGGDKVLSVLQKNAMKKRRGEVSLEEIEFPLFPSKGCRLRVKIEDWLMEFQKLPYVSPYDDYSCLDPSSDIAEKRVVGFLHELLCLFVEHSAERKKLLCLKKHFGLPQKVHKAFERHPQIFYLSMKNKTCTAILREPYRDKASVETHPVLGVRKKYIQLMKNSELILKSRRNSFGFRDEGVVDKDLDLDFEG

B2: MID1(77–170aa), yeast two-hybrid fusion (domain or fragment, UniProt Q9LNC0 77-170)
chain: T5 sequence
binding [2]: binds

B6: MID1(77–240aa), yeast two-hybrid fusion (domain or fragment, UniProt Q9LNC0 77-240)
chain: T6 sequence
binding [2]: binds

B7: MID1(77–205aa), yeast two-hybrid fusion (domain or fragment, UniProt Q9LNC0 77-205)
chain: T3 sequence
binding [2]: binds

B9: MID1(77–276aa), yeast two-hybrid fusion (domain or fragment, UniProt Q9LNC0 77-276)
chain: T4 sequence
binding [2]: binds

Second part, the binder after the results:

binding [1]: no binding
B1: WTF9-NLuc (protein, UniProt Q9ZUZ6 25-387)
chain: T9 sequence

binding [2]: binds
B3: MID1(77–311aa), yeast two-hybrid fusion (domain or fragment, UniProt Q9LNC0 77-311)
chain: T7 sequence

binding [2]: no binding
B4: MID1(136–170aa), first PPR motif of MID1, yeast two-hybrid fusion (domain or fragment, UniProt Q9LNC0 136-170)
chain: T2 sequence

binding [3]: binds
binding [2]: binds
binding [4]: binds
binding [5]: binds
binding [6]: binds
binding [7]: binds
binding [8]: binds
binding [9]: no binding
B5: MID1(77–343aa), MITOCHONDRION-MEDIATED GROWTH DEFECT 1 without the mitochondrial targeting signal, yeast two-hybrid fusion (domain or fragment, UniProt Q9LNC0 77-343)
chain: HRIRVIDEILQSFVPVRPRSLPKIVYSSLLTYCLQSSDPLPLSFAILQRTLRSGCLPNPQTHLLLSDAWLERRRGSQSVADIINEMKLIGYSPDTGTCNYLVSSLCAVDKLDEAIKVVEEMSAAGCIPDVESYGAVINSLCLARKTTDVVKIVKEMVSKAGISPRKGMLTKVAAALRANREIWKAIEMIEFVESRDYPVEFESYEVVVEGCLEVREYILAGKVVMRMTDRGFIPYIKVRQKVVERLINIGEWKLACTVRQRVSELRS

binding [10]: no binding
B8: ODB1-3×Flag, full-length O… DNA-BINDING PROTEIN 1 with C-terminal 3×Flag (protein, UniProt Q9FVV7 38-176)
chain: STETENDVPTSGISRPLAEILKELNKKVPDSVIRTRVEDGCSIKYIPWHIVNRIMNMHAPEWSGEVRSVTYSPDGNTVTVAYRVTLYGTDAEIFRESTGTTSVDDKGYGDAVQKAEAMAFRRACARFGLGLHLYHEDAL
